# Laboratory results published in PubChem BioAssay AID624202 (National Center for Advancing Translational Sciences (NCATS), 2012).
# The campaign covered roughly 380,000 compounds. About 4,000 (1.1%) were called active. The inconclusive results got no clear call from the source; some entries with a clear call stand among them for comparison. The call rests on the fitted dose curve; in most records, active means well fitted activation curve with a large enough effect; inconclusive means small, poorly fitted or top-dose-only effect; inactive means no such curve, though single readings can be large or run the other way. A potency beside an inconclusive call is a rough fit, not a confirmed value.
# Assay: qHTS Assay to Identify Small Molecule Activators of BRCA1 Expression; further: nearly all actives have a fitted effect of over 80% in size
# Details: MCF7-BRCA1-FFLuc reporter, luminescence, 48 h; activation: at 46.1 µM (top of the series), scaled: vehicle 0%, 10 µM genistein 100% unless noted
# How it was run: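 48 h compound treatment of MCF7-BRCA1-FFLuc cells (phenol-red free MEM, 37 °C), then 15 min with luciferase substrate and luminescence imaging.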
# Potency means the concentration at half of the fitted maximal effect; tags describe the fitted curve by direction and shape.
SMILES,activation,Potency
COc1ccc(N(CC(=O)Nc2ccc(OC)cc2OC)S(=O)(=O)c2ccccc2)cc1,inactive: -69.5%,–
OC(CCN1CCCCC1)(c1ccccc1)c1ccccc1,inactive: 0%,–
CCOc1ccc(NC(=O)CNC(=O)c2ccco2)cc1,–,"inconclusive: 14.1 µM [activator, partial curve, poor fit]"
Cc1ccc(-c2nnc(Nc3ccc4c(c3)nc(C)n4C)c3ccccc23)cc1,inactive: -1.04%,–
CCOC(=O)Nc1ccc2c(c1)Cc1cc([N+](=O)[O-])ccc1-2,–,"inconclusive: 1.78 µM [activator, partial curve, poor fit]"
Cc1cccc(-c2cc3nc(C)cc(C)n3n2)c1,–,active: 1.58 µM
CN(C(=O)c1cc2c(=O)n3ccccc3nc2n1C)C1CCCCC1,–,active: 1.41 µM
Cc1ccc(-c2nnc(SCC(=O)N3CCCC3)o2)cc1C,–,"inconclusive: 1.26 µM [activator, full curve, poor fit]"
Fc1ccc(CSc2ccc(-c3ccco3)nn2)cc1,–,active: 7.08 µM
CN(C)c1ccc(/C=N/NC(=O)c2ccnn2C)cc1,–,active: 12.6 µM
COc1cccc(NC(=O)COc2ccccc2C(N)=O)c1,–,"inconclusive: 3.16 µM [activator, full curve, poor fit]"
O=c1cc(NCc2ccccc2)nc2ccccn12,–,"inconclusive: 11.2 µM [activator, partial curve, poor fit]"
CN1CCc2c(sc3c2C(=O)NC(c2cccc(OC(=O)c4cccs4)c2)N3)C1 (centres undefined),–,"inconclusive: 31.6 µM [activator, single point]"
CCCC(=O)N(C)c1nnc(-c2ccc(OC)cc2)s1,–,"inconclusive: 7.08 µM [activator, partial curve, poor fit]"
c1ccc(NC2=Nc3ccccc3CS2)cc1,–,active: 3.55 µM
Cc1ccc(/C=N/N=C/c2ccc(C)cc2)cc1,–,"inconclusive: 25.1 µM [activator, single point]"
Cc1ccc(C(=O)/C=C/Nc2ccccn2)cc1,inconclusive: -70.8% [activator],–
CCOC(=O)c1cn[nH]c1NC(=S)Nc1ccc(Cl)cc1,inconclusive: 67.5% [activator],–
Clc1ccc(C2=NNC(=NCC3CCCO3)SC2)cc1 (centres undefined),–,active: 2.51 µM
O=C(Nc1nccs1)c1ccc(Br)o1,–,"inconclusive: 12.6 µM [activator, partial curve, poor fit]"
N/C(=N\OC(=O)c1ccccc1Br)c1cccc([N+](=O)[O-])c1,–,"inconclusive: 1 µM [activator, full curve, poor fit]"
CN1CCN(C(=S)NC(=O)c2ccc(Cl)cc2)CC1,inactive: -18.1%,–
COc1ccccc1CNc1cc(C)ccn1,inactive: -4.6%,–
COc1cccc(-c2onc3ccc(C4(C)OCCO4)cc23)c1,–,"inconclusive: 35.5 µM [activator, single point]"
C=C1[C@@H](O)[C@@H]2O[C@]3(CC[C@H](/C=C/[C@@H](C)[C@@H]4CC(C)=CC5(O[C@H](C[C@@](C)(O)C(=O)OC)CC[C@H]5O)O4)O3)CC[C@H]2O[C@@H]1[C@@H](O)C[C@H](C)[C@H]1OC2(CCCCO2)CC[C@H]1C (some centres undefined),inconclusive: -75.2% [activator],–

SMILES,activation,Potency
CCCCc1ccc(NC(=O)CC(C)=O)cc1,inactive: 44.5%,–
CCOc1ccc(NC(=O)Nc2cccc(C)n2)cc1,–,"inconclusive: 2.24 µM [activator, full curve, poor fit]"
O=C(Nc1cnc2ccccn2c1=O)c1ccc(F)cc1,–,"inconclusive: 15.8 µM [activator, partial curve, poor fit]"
Brc1ccc(-c2nnc(SCCC3OCCCO3)o2)cc1,–,"inconclusive: 11.2 µM [activator, partial curve, poor fit]"
O=c1c2ccccc2nnn1CSc1nnc(-c2ccco2)o1,–,"inconclusive: 31.6 µM [activator, single point]"
O=C(Nc1nccs1)c1ccc([N+](=O)[O-])cc1,–,"inconclusive: 10 µM [activator, partial curve, poor fit]"
CCOC(=O)c1cnc(-n2nc(C)cc2C)nc1Nc1ccc(O)cc1,inactive: -7.84%,–
Cc1cc2cc(CNC(=O)Nc3ccccc3)ccc2[nH]1,–,active: 11.2 µM
O=C(Cc1cccs1)Nc1ccc(NC(=O)c2ccco2)cc1,–,"inconclusive: 14.1 µM [activator, partial curve, poor fit]"
COc1ccccc1C(=O)Nc1ccc2c(c1)nc(CCNC(C)=O)n2C,–,active: 10 µM
Cc1ncc(C(=O)Nc2ccccc2)[nH]1,–,active: 2.82 µM
CN(C)C(CNC(=O)c1cc2ccccc2oc1=O)c1ccccc1 (centres undefined),–,"inconclusive: 8.91 µM [activator, partial curve, poor fit]"
Cc1ccnc(NC(=O)c2ccc3c(c2)NC(=O)C(C)S3)c1 (centres undefined),inconclusive: -56.2% [activator],–
C/C(=N/NC(=O)c1ccccn1)c1ccc(O)cc1,–,"inconclusive: 4.47 µM [activator, partial curve, poor fit]"
O=C(Nc1ccc(NC(=O)C2CC2)nc1)c1ccccn1,–,"inconclusive: 0.501 µM [activator, full curve, poor fit]"
Cc1ccccc1NC(=O)OCc1ccccc1,–,"inconclusive: 15.8 µM [activator, partial curve, poor fit]"
O=C(CSCc1ccccc1)NCc1ccc2c(c1)OCO2,–,"inconclusive: 22.4 µM [activator, single point]"
CC(=O)c1ccc(NC(=O)C(C)n2nc(-c3ccccc3)c3cc(Cl)ccc32)cc1 (centres undefined),inactive: -56.5%,–
O=C(CCCn1c(=O)c2ccccc2n(Cc2ccc(F)cc2Cl)c1=O)NCCc1ccc(Cl)cc1,inactive: -2.44%,–
CC(C)(C)NC(=S)NNC(=O)c1cccc(Br)c1,–,"inconclusive: 10 µM [activator, partial curve, poor fit]"
O=C(/C=C/c1ccccc1Cl)NCc1cccs1,–,active: 3.98 µM
Nc1ccccc1NC(=O)c1ccccc1N,–,"inconclusive: 22.4 µM [activator, single point]"
Cc1ccc(C(=O)CC(=O)c2cc(Cl)ccc2O)cc1,inactive: -17.4%,–
Cc1nc2cc(-c3cccs3)[nH]n2c(=O)c1C,–,"inconclusive: 15.8 µM [activator, single point]"
O=C1CC(=O)Nc2cc(S(=O)(=O)Nc3cccc(C(F)(F)F)c3)ccc2N1,inactive: -1.76%,–

SMILES,activation,Potency
O=C(Nc1nc2ccc(Cl)cc2s1)c1ccc(Br)o1,–,"inconclusive: 1 µM [activator, full curve, poor fit]"
CC(=O)Nc1cccc(C(=O)NCCc2ccco2)c1,–,"inconclusive: 11.2 µM [activator, partial curve, poor fit]"
Cc1cc(NC(=O)c2ccc(F)cc2)no1,–,"inconclusive: 7.94 µM [activator, partial curve, poor fit]"
CC(=O)Nc1ccc(OCc2cccc([N+](=O)[O-])c2)cc1,–,"inconclusive: 7.94 µM [activator, partial curve, poor fit]"
CCOc1ccc(-c2cnc3ccccc3n2)cc1,inconclusive: -19.3% [activator],–
CC(=O)CSc1nc2ccccc2s1,–,active: 12.6 µM
C=C(CN(C)C)C(=O)c1cc(C)ccc1C,inactive: -99.5%,–
Cc1cc(C)c2c(CN(C)Cc3ccccc3)cc(=O)oc2c1,–,active: 12.6 µM
Cc1occc1C(=O)Nc1ccc2c(c1)CCC2,–,"inconclusive: 2.82 µM [activator, full curve, poor fit]"
COc1ccc(CC(=O)NC2CCN(Cc3nnnn3C(C)(C)C)CC2)cc1OC,inactive: -0.682%,–
CN(C)CCN(C(=O)CN1C(=O)c2ccccc2C1=O)c1nc2cc3c(cc2s1)OCCO3,–,"inconclusive: 11.2 µM [activator, partial curve, poor fit]"
O=c1[nH][nH]c2c1C(C1CCCCC1)OC(C1CCCCC1)C2 (centres undefined),inactive: 6.83%,–
CCOc1ccc(C(=O)Nc2ccc(Cl)cn2)cc1Cl,–,active: 6.31 µM
O=C(N/N=C/c1ccc2c(c1)OCO2)c1ccc2c(c1)OCO2,–,active: 8.91 µM
COc1ccc(OC)c(NC(=O)COC(=O)c2c(C)noc2C)c1,inactive: 0.313%,–
C/C(=C\C(=O)c1sccc1Cl)N(C)C,–,"inconclusive: 22.4 µM [activator, single point]"
O=C(CSc1ccc(-c2ccc(-n3cccn3)cc2)nn1)Nc1ccc([N+](=O)[O-])cc1,–,"inconclusive: 7.08 µM [activator, partial curve, poor fit]"
CS(=O)(=O)Nc1cccc(-c2cn3ccccc3n2)c1,–,"inconclusive: 15.8 µM [activator, partial curve, poor fit]"
CCN(CC)CCCNC(=O)C1CCN(C(=O)c2oc3cc4sc(N(C)C)nc4cc3c2C)CC1,–,"inconclusive: 35.5 µM [activator, single point]"
Clc1ccc(-c2noc(CN3CCCC3)n2)cc1,–,active: 12.6 µM
Fc1ccc(N2CCN(c3cnc4ccccc4n3)CC2)cc1,–,"inconclusive: 1.26 µM [activator, full curve, poor fit]"
O=C(c1cc(COc2ccc(F)cc2Cl)on1)N1CCCCCC1,–,"inconclusive: 2.51 µM [activator, full curve, poor fit]"
O=C(CCc1nnc(-c2ccc3c(c2)OCO3)o1)N1CCC(c2ccc(F)cc2)C1 (centres undefined),–,"inconclusive: 17.8 µM [activator, single point]"
Cc1c(C)n(CCO)c2ncnc(Nc3ccc(F)cc3)c12,–,"inconclusive: 11.2 µM [activator, partial curve, poor fit]"
